# Publication PMC4336329 (PLoS ONE, 2015)
# In all, about 310,000 compounds went through this assay and about 2,200 (0.71%) showed an effect of 50% or more. The effect is printed as a negative number. This is one part of the list.
# Target: human ether-à-go-go-related gene (hERG) potassium channel (human, UniProt Q12809)
# Experiment: primary screen, population patch clamp on CHO cells stably expressing hERG
# human ether-à-go-go-related gene (hERG) potassium channel, sequence (Q12809 whole entry, looked up): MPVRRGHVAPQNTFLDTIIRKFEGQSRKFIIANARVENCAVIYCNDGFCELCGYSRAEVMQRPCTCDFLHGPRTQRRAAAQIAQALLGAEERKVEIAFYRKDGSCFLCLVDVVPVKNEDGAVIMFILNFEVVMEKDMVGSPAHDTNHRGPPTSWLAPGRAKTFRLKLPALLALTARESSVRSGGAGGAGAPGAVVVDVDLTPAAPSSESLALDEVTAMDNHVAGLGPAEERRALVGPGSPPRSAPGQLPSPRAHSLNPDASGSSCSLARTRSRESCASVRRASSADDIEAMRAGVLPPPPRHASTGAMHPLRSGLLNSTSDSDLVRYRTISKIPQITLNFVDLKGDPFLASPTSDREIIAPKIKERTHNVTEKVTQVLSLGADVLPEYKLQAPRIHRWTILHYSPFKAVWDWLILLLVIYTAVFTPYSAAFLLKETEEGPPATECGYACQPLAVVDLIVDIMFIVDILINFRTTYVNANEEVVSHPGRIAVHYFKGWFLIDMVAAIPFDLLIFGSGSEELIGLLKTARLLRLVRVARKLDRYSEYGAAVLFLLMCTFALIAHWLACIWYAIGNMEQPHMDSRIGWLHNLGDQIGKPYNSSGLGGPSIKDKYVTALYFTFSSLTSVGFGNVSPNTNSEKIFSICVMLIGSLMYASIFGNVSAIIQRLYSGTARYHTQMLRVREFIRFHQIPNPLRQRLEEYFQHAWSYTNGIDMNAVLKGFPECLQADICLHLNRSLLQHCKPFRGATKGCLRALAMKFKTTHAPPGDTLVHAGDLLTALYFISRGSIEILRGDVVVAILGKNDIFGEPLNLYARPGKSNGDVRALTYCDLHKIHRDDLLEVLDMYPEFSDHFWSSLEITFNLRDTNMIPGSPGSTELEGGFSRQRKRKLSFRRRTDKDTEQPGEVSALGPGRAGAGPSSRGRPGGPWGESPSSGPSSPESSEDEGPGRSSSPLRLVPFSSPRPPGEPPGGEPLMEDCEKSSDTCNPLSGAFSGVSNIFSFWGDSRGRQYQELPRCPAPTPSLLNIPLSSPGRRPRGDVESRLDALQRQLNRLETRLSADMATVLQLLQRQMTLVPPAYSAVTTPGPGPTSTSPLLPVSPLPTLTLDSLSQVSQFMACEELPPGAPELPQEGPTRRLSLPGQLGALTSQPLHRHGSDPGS
row,Compound,"hERG current change (%, negative = inhibition) at 1uM [%]"
1,CCOC(=O)Cn1nnnc1C(C(C)C)N(Cc1cccs1)Cc1cc2cc(C)ccc2[nH]c1=O (stereo not drawn),2.89
2,NC(=O)C1CC(=O)N(c2ccc(OCc3ccc([N+](=O)[O-])cc3)cc2)C1 (stereo not drawn),11.8
3,O=C(O)COc1ccc(/C=N/NC(=O)c2ccccc2Br)cc1,12.8
4,CS(=O)(=O)N(CC(=O)N1CCOCC1)c1ccccc1Br,13
5,CCOC(=O)c1cc(-c2ccc(C)cc2)nc2nc(SC)[nH]c(=O)c12,14.9
6,CC(NC(=O)CSc1nnc(-c2cccc(S(=O)(=O)N3CCCCC3)c2)o1)C12CC3CC(CC(C3)C1)C2 (stereo not drawn),8.71
7,COc1ccc(-c2ccc(=O)[nH]n2)cc1,-4.86
8,CCCCN1C(=O)/C(=C(/C#N)C(=O)N2CCCC2)c2ccccc21,4.53
9,O=C(Nc1nc(-c2ccccc2Cl)cs1)c1cccnc1,4.43
10,COCCNC(=O)C1Cc2cc(S(=O)(=O)N3CCCC3)ccc2N1C(C)=O (stereo not drawn),12.2
11,COc1ccc(S(=O)(=O)N2CCOCC2)cc1NC(=O)COc1ccccc1OC,21.2
12,O=C(C1=C[C@H](C2CC2)C[C@H](OCc2ccc(CO)cc2)O1)N1CCN(Cc2ccc3c(c2)OCO3)CC1,-7.21
13,Cc1ccc(S(=O)(=O)c2cc3c(=O)n4ccccc4nc3n(Cc3ccco3)c2=N)cc1C,-6.2
14,Cc1cc(NC(=O)CO/N=C/c2ccc3c(c2)OCO3)ccc1Br,14.7
15,C/C(=N\NC(=O)c1cccnc1)c1ccc(OC2OCCOC2Oc2ccc(/C(C)=N/NC(=O)c3cccnc3)cc2)cc1 (stereo not drawn),-0.665
16,Cc1[nH]c2ccccc2c1C(=O)CN1CCSCC1,7.96
17,O=C(Cn1nc(-c2ccccc2)c2ccccc2c1=O)Nc1ccc(O)cc1,0.253
18,Cc1ccc(NS(=O)(=O)c2ccc(Cl)s2)cc1S(=O)(=O)N(C)C,7.95
19,CCCc1cc(C(=O)NNC(=S)NC(C)c2ccccc2)cs1 (stereo not drawn),6.74
20,Cc1ccc(CCN2CC(C(=O)NCc3ccco3)CC2=O)cc1 (stereo not drawn),11.3
21,Cc1cc(C)n(-c2nc(NCCN(C)C)c3c4c(sc3n2)COC(C)(C)C4)n1,1.96
22,Cc1nn2cnnc2c(C)c1Cc1ccc(Cl)cc1,9.11
23,COc1ccccc1N1CCN(C(=O)c2ccc(C(C)(C)C)cc2)CC1,-7.36

row,Compound,"hERG current change (%, negative = inhibition) at 1uM [%]"
1,COc1ccc(CCNC(=O)C(=O)NCc2ccccn2)cc1,11.9
2,O=C1c2ccccc2CCC1C(O)c1ccccn1 (stereo not drawn),12.7
3,CCn1c(Cc2ccccc2)nnc1SCC(=O)Nc1ccccc1F,3.1
4,CN(Cc1cccc(Cl)c1Cl)CC(O)COc1ccccc1.O=C(O)C(=O)O (stereo not drawn),7.55
5,C=CCn1c(N/N=C/c2ccc(O)cc2)nc2ccccc2c1=O,-5.61
6,Cc1nc2ccccc2cc1C(=O)NCc1ccco1,10.3
7,CC(=O)N(C1=C(N)C(=O)c2ccccc2C1=O)c1ccccc1,8.45
8,COCCSc1ccccc1C(=O)N1CCN(c2ccccc2OC)CC1,9.68
9,CCO/C=C1\C(=O)N(c2ccc(OCC)cc2)C(=O)c2ccccc21,19.3
10,COc1ccc(CNC(=O)c2ccc(CS(=O)(=O)c3ccc(C)cc3)o2)cc1,10
11,c1c2c(cc3sc(N4CCOCC4)nc13)OCO2,15.3
12,Cc1ccc2nc3sc(C(=O)N4CCOCC4)c(N)c3cc2c1,9.05
13,Cc1ccccc1NNC(N)=S,0.34
14,O=S(=O)([N-]c1nc2ccccc2nc1-[n+]1ccc(CCCc2ccccc2)cc1)c1cccs1,5.16
15,COc1cc2c(cc1OC)CN(C(=O)COc1ccc(C#N)cc1)CC2,-31.1
16,C=CCn1c(SCC(=O)c2cccs2)nc2sc(C)cc2c1=O,7.02
17,CC1=Nc2nc(N3CCCCC3)c(C#N)c3c4c(nc(c23)N1)N(c1ccc(C(C)C)cc1)C(=O)C4.CN(C)C=O,9.43
18,CCOC(=O)C1CCCN(CC(O)COCc2ccccc2OC)C1 (stereo not drawn),10.6
19,CCOC(=O)C1(CCOC)CCN(C/C=C/c2ccccc2OC)CC1,-5.39
20,CCCCS(=O)(=O)Nc1ccc2c(c1)ncn2C1CCCCC1,-4.33
21,Cc1nnc(NC(=O)CSc2nnnn2Cc2ccccc2)s1,3.64
22,CS(=O)(=O)N(Cc1cccc(CN(C(C(=O)O)c2ccccc2)S(C)(=O)=O)c1)C(C(=O)O)c1ccccc1 (stereo not drawn),16.9
